# From PubChem BioAssay AID1345083 (National Center for Advancing Translational Sciences (NCATS), 2018)
# Out of some 94,000 compounds screened, about 6,200 (6.6%) were called active. Inconclusive means that the source gave no clear call. Such entries were picked first, then a sample of the others. Calls come from the whole dose curve; as a rule, active = well fitted inhibition curve with a large enough effect; inconclusive = small, poorly fitted or top-dose-only effect; inactive = flat fitted curve, though single readings scatter. Where the call is inconclusive, the potency comes from a doubtful curve fit.
# Test: Cytotoxic Profiling in HEK 293 Cell Line of Diverse Libraries Using Quantitative High-Throughput Screening; note: nearly all actives have a fitted effect of over 60% in size
# Conditions: HEK 293 viability, ATP luminescence (CellTiter-Glo), 48-72 h; series mostly up to 115 µM
# Method in brief: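 HEK 293 cells seeded at 250 cells/well were exposed to compound for 48 or 72 hr at 37 degree Celsius. Viability taken as ATP content by CellTiter-Glo luminescence.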
# Potency is the fitted concentration of half-maximal effect; tags give direction and shape of the fitted curve.
row,Structure (SMILES),Potency
1,COc1ccc(-c2nnc3ccc(N4CCc5ccccc5C4)nn23)nc1,active: 56.2 µM
2,O=C(Nc1ccc(Cl)cc1)c1ccc(Cn2ccn3nc4c(c3c2=O)CCCC4)cc1,"inconclusive: 35.5 µM [inhibitor, full curve]"
3,Cc1ccc(S(=O)(=O)N[C@H]2CC(C)(C)[C@@H]3C[C@@](C)(O)CC[C@]23CCC(=O)NCCc2c[nH]c3ccccc23)cc1,"inconclusive: 56.2 µM [inhibitor, partial curve, poor fit]"
4,C=CCNC(=O)CCc1c(CC)nn(-c2ccc(OC)cc2)c1Oc1ccccc1F,"inconclusive: 44.7 µM [inhibitor, partial curve, poor fit]"
5,COc1ccc(CC(=O)N2CCC(C(=O)N3CCC(c4nc5ccncc5[nH]4)C3)CC2)cc1 (stereo not given),inactive
6,Cc1ccc(-c2cc(N3CCCN(C(=O)C(C)Oc4ccccc4)CC3)n[nH]2)cc1C (stereo not given),"inconclusive: 44.7 µM [inhibitor, partial curve, poor fit]"
7,c1ccc(Oc2ccccc2-c2cc3c(cn2)CN(Cc2ccncc2)CCN3)cc1,"inconclusive: 100 µM [inhibitor, partial curve]"
8,COc1cccc(CC(=O)N2CCC3(CC2)CN(c2ccccc2)C3=O)c1,"inconclusive: 44.7 µM [inhibitor, partial curve, poor fit]"
9,Cc1cccc2c1nc1n2[C@@H](CNCc2nc3ccccc3n2C)COC1,"inconclusive: 79.4 µM [inhibitor, partial curve]"
10,COc1ccc(CCN2CCC(CN(C)C(=O)c3ccccc3SC)CC2)cc1,"inconclusive: 56.2 µM [inhibitor, partial curve, poor fit]"
11,Cc1cc2nc3n(c(=O)c2n1CC(=O)NCc1ccc(Cl)cc1)CCCC3,inactive
12,COc1ccc(OC)c(NC(=O)c2cc3n(n2)CC(c2ccc4c(c2)OCO4)OC3)c1 (stereo not given),"inconclusive: 50.1 µM [inhibitor, partial curve, poor fit]"
13,CCCS(=O)(=O)N1CCCC1c1nc2ccccc2s1 (stereo not given),"inconclusive: 39.8 µM [inhibitor, partial curve, poor fit]"
14,O=C(C1CCCC1)N1CC2(CCN(CC3CC3)CC2)Cc2ccccc21,"inconclusive: 70.8 µM [inhibitor, partial curve, poor fit]"
15,COc1ccc(C(=O)N2CCC(Cc3nc(-c4cnccn4)no3)CC2)cc1OC,"inconclusive: 50.1 µM [inhibitor, partial curve, poor fit]"
16,Cc1nnc(-c2cc(-c3ccc(CO)cc3)ccn2)n1Cc1ccccc1,"inconclusive: 112 µM [inhibitor, partial curve, poor fit]"
17,O=C(Nc1ccccc1)C1(CCO)CCN(Cc2ccccc2)C1 (stereo not given),"inconclusive: 100 µM [inhibitor, single point]"
18,Cc1cc(C(=O)N2CCC(CC(=O)N(C)Cc3ccccc3)C2)n(C)n1 (stereo not given),inactive
19,Oc1ccccc1CN1CCC[C@H]1c1nc(-c2ccc(N3CCOCC3)nc2)no1,"inconclusive: 70.8 µM [inhibitor, partial curve, poor fit]"
20,COc1ccccc1-c1ccc(C(=O)N2CCC(NC(=O)Nc3ccccc3)CC2)cc1,active: 39.8 µM
21,COCCn1c(CN(C)Cc2sccc2C)cnc1S(=O)(=O)CC1CCCCC1,"inconclusive: 22.4 µM [inhibitor, full curve, poor fit]"
22,CC(=O)N1CCN(C(=O)c2ccc3c(c2)NC(C)(COc2cccnc2)CO3)CC1 (stereo not given),"inconclusive: 50.1 µM [inhibitor, partial curve, poor fit]"

row,Structure (SMILES),Potency
1,O=C1CCN(Cc2cccnc2)CCCC(C(=O)N2CCN(Cc3ccccc3F)CC2)CCN1 (stereo not given),"inconclusive: 89.1 µM [inhibitor, partial curve, poor fit]"
2,COc1ccnc(-c2nnc3ccc(N(C)c4ccccc4)nn23)c1,active: 44.7 µM
3,O=S(=O)(c1cccs1)N1CCCCC1c1nc(CCOCC2CC2)no1 (stereo not given),"inconclusive: 56.2 µM [inhibitor, partial curve, poor fit]"
4,Cc1nn(-c2ccccc2)c2c1C(C)N(C1CCCN(C(=O)c3ccc(F)cc3)C1)C2=O (stereo not given),"inconclusive: 50.1 µM [inhibitor, partial curve, poor fit]"
5,Cc1cn2nc(C(=O)NCc3ccccc3Cl)cc2c(N2CCCC2)n1,inactive
6,CC(NC(=O)CN1C(=O)COc2ccc(C(=O)COc3cccc(F)c3)cc21)c1ccccc1 (stereo not given),"inconclusive: 56.2 µM [inhibitor, partial curve, poor fit]"
7,Cc1cc(CN2CCC(Cc3ccc(F)cc3)CC2)n(C)n1,active: 39.8 µM
8,CN(C)[C@H]1CCCCN(C(=O)CCc2ccc(-c3ccc(Cl)cc3)[nH]2)C1,"inconclusive: 50.1 µM [inhibitor, partial curve, poor fit]"
9,COc1ccc(CN2CCC(O)(c3csc(CN4CCN(C)CC4)n3)CC2)cc1,active: 100 µM
10,O=C(c1nc2sccn2c1-c1ccc(C(F)(F)F)cc1)N1CCOCC1,inactive
11,COc1ccc(C(=O)N[C@H]2CO[C@H]3[C@@H]2OC[C@@H]3n2cc(CC3CCCCC3)nn2)cc1,"inconclusive: 89.1 µM [inhibitor, partial curve, poor fit]"
12,CC(C)c1ccc(NC(=O)N2CC[C@@H](CC(=O)O)[C@@H](CC3=NCCc4ccccc43)C2)cc1,inactive
13,Cc1cccc(C(=O)N2CCC[C@H]2c2nc(-c3ccccc3Cl)no2)c1,"inconclusive: 89.1 µM [inhibitor, single point]"
14,O=C1c2cnc(-c3ccsc3)nc2OCCN1c1ccccc1,"inconclusive: 79.4 µM [inhibitor, partial curve, poor fit]"
15,COCC(=O)N1CCCC(C(=O)NCc2ccc(F)cc2Cl)C1 (stereo not given),inactive
16,O=C(Nc1ccc(F)cc1)[C@@H]1C[C@@H](c2ccc(F)cc2)N([S+](=O)([O-])c2ccccc2)C1,"inconclusive: 35.5 µM [inhibitor, full curve, poor fit]"
17,Cc1cccc(OCCc2noc(C3CCN(S(=O)(=O)C(C)C)C3)n2)c1 (stereo not given),"inconclusive: 50.1 µM [inhibitor, partial curve, poor fit]"
18,CC(C)c1cc(NCc2cccnc2-n2cncn2)n2nccc2n1,inactive
19,O=C(C1CC1)N1CCN(c2ccc3nnc(C4CC4)n3n2)CC1,inactive
20,COc1cc(=O)n2c(c1C(=O)Nc1ccc(Cl)cc1Cl)CCCC2,inactive
21,C[S+](=O)([O-])N1CC2(Cc3ccccc31)CN(C(=O)c1ccccc1Cl)C2,"inconclusive: 39.8 µM [inhibitor, partial curve]"
22,COc1ccccc1Nc1ncc2c(n1)CN(C(=O)c1cc3ccccc3n1C)CCN2,active: 70.8 µM

row,Structure (SMILES),Potency
1,CCNc1cc(N2CCC(CCC(=O)O)CC2)ncn1,inactive
2,COc1ccc(NC(=O)NCC2CCCN(C(C)C)C2)cc1OC (stereo not given),inactive
3,CC(=O)N1CCN(C(=O)[C@@]23CCCC[C@H]2N(CCC(C)C)C(=O)CC3)CC1,"inconclusive: 89.1 µM [inhibitor, single point]"
4,Cc1cc(C2CC(C(=O)NCc3ccc4c(c3)OCO4)CN(C(=O)c3ccccc3)C2)ccc1F (stereo not given),"inconclusive: 50.1 µM [inhibitor, partial curve, poor fit]"
5,CS(=O)(=O)N1CC(F)(F)C[C@H]1c1nc(-c2ccncc2)no1,inactive
6,Cc1ccc(C(=O)NC2CCN(C(=O)c3ccc(-c4cccs4)cc3)CC2)cc1,"inconclusive: 56.2 µM [inhibitor, partial curve, poor fit]"
7,CC(C)c1noc(CC2CCN(C(=O)c3cc4ccccc4[nH]3)CC2)n1,"inconclusive: 31.6 µM [inhibitor, full curve, poor fit]"
8,CN1CC(=O)N(C2CCCC2)Cc2c1ncnc2N1CCOCC1,inactive
9,CN(C)c1ncc2c(n1)C(C)(C(=O)Nc1cccc(F)c1)CCC2 (stereo not given),"inconclusive: 100 µM [inhibitor, partial curve]"
10,Cn1ncc2c(C(=O)NCc3cccs3)cc(-c3ccccc3)nc21,"inconclusive: 89.1 µM [inhibitor, single point]"
11,COc1ccc(-c2cc(C[C@H]3CNCC[C@H]3CC(=O)Nc3ccccc3)no2)cc1,active: 44.7 µM
12,O=C(O)[C@]12CCCN[C@@H]1CCN(c1cc(N3CCOCC3)ncn1)C2,inactive
13,Cc1nn2c(c1-c1ccccc1OCc1ccccc1)N(C(=O)COc1ccccc1C(N)=O)CCC2,"inconclusive: 44.7 µM [inhibitor, full curve, poor fit]"
14,CCOC1CCOC2(CCN(C(=O)c3cccn3C)CC2)C1 (stereo not given),inactive
15,CN1C(=O)C2(CCN(Cc3cccc4ccccc34)C2)c2ccccc21 (stereo not given),active: 28.2 µM
16,CNC(=O)C(C)(C)N1CCC[C@H]1C(=O)N[C@@H](CO)CC(C)C,inactive
17,COc1ccc(NC(=O)c2cnc3c(c2)N(C(=O)Cc2cccc(C(F)(F)F)c2)CCC3)cc1OC,"inconclusive: 79.4 µM [inhibitor, partial curve]"
18,COc1cc2c(cc1CNC(=O)Cn1nc(C)n(Cc3ccccc3)c1=O)CCC2,"inconclusive: 89.1 µM [inhibitor, single point]"
19,CNC(=O)c1cc(C2CC2)nc2c1c(C1CCN(C(=O)c3ccc4c(c3)OCO4)CC1)nn2C,"inconclusive: 79.4 µM [inhibitor, partial curve, poor fit]"
20,COc1ccccc1C(=O)N1CCC(C(NC(=O)c2ccccc2C)C(=O)N2CCCC2)CC1 (stereo not given),inactive
21,O=C1NC2(CCN([S+](=O)([O-])c3cccc(C(F)(F)F)c3)C2)N=C1c1cccnc1 (stereo not given),inactive
